± gives the standard deviation of the averaged measurements. Over roughly 33,000 sequences, “E-score (dimensionless, -0.5 to 0.5)” has its median near -0.046; the highest 2% begin near 0.36. The list shows a part of the results.
test system: T1, SpTbr T-box DNA-binding domain (GST fusion); assay: PBM E-score of 8-mer (E-score (dimensionless, -0.5 to 0.5)); Tbr is Tbrain of the sea star Patiria miniata (Pm) or the sea urchin Strongylocentrotus purpuratus (Sp); higher = stronger binding preference; most listed sequences are background and not binding sites; details: the construct has about 5 more residues each side
T1 sequence: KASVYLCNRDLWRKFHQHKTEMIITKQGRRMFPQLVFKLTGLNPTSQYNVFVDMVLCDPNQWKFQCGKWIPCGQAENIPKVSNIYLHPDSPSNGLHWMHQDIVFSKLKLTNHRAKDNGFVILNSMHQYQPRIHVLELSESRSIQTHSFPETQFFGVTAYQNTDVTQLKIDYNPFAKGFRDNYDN
In short: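 Each ungapped 8-mer received an enrichment E-score from the Universal PBM Analysis Suite, averaged over duplicate arrays. The proteins were Tbr T-box DNA-binding domains, covering the whole T-box plus about five flanking residues, fused to GST and expressed in BL21 E. coli at 20 °C before glutathione affinity purification. Universal Agilent oligonucleotide arrays were made double-stranded by primer extension and incubated with 200 nM protein in PBS (pH 7.5). The arrays were then scanned and quantified, and every 8-mer was scored from probe intensities.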

Row | Sequence | PBM E-score of 8-mer
1 | ATGAGTTC | -0.106 ± 0.042
2 | GTATTATA | -0.284 ± 0.011
3 | CCTCTCAC | 0.361 ± 0.028
4 | CCCAAGTC | -0.163 ± 0.049
5 | CACAGAAA | -0.0162 ± 0.003
6 | GACTATGA | -0.0547 ± 0.034
7 | CGGCATAA | -0.302 ± 0.015
8 | CTCAGGGC | -0.123 ± 0.038
9 | CTGCCTCC | -0.155 ± 0.041
10 | TTAACCAA | -0.059 ± 0.0019
11 | GAAACGCA | -0.112 ± 0.0069
12 | GTAGGAAC | 0.073 ± 0.033
13 | GAATACCA | -0.0747 ± 0.052
14 | AAAGGGGC | -0.214 ± 0.017
15 | AAGCCGGG | -0.254 ± 0.053
16 | TCCCTACA | -0.17 ± 0.0073
17 | CGTTGTGA | 0.162 ± 0.028
18 | CTTCCGCA | 0.102 ± 0.023
19 | ACATATCA | 0.216 ± 0.043
20 | CTGGAAAG | -0.214 ± 0.068
21 | CGAGTGGC | 0.0734 ± 0.095
22 | CTATGGAA | -0.2951 ± 0.001
23 | ACCTTGGC | 0.249 ± 0.0077
24 | CAAACATG | -0.0413 ± 0.026
25 | CTTGGTTC | -0.108 ± 0.029

Row | Sequence | PBM E-score of 8-mer
26 | ACGTCGTC | 0.0505 ± 0.041
27 | CACAATAC | 0.235 ± 0.0092
28 | AGCCAAAA | -0.265 ± 0.044
29 | AGTTCGTA | -0.053 ± 0.0053
30 | TGCGTCCA | -0.106 ± 0.061
31 | CCTGCACA | 0.08094 ± 0.00011
32 | ATGCATAA | -0.158 ± 0.063
33 | CCCGGTAC | -0.156 ± 0.041
34 | CTTGGTGC | 0.0988 ± 0.053
35 | ATGCATCC | -0.221 ± 0.065
36 | GAATCCTA | -0.182 ± 0.028
37 | TCTCTTCA | -0.106 ± 0.055
38 | AAAGCCTA | -0.353 ± 0.02
39 | CTCCCCAG | 0.00668 ± 0.043
40 | ATGTGTTA | 0.444 ± 0.015
41 | TAGGTGAA | 0.174 ± 0.059
42 | CTAGGGCA | -0.247 ± 0.024
43 | AGTCTCGC | 0.2447 ± 0.0024
44 | AACGGCAA | -0.0164 ± 0.062
45 | GCGACCAA | 0.135 ± 0.11
46 | CGCGTAAA | 0.132 ± 0.053
47 | CATTCATA | -0.0231 ± 0.071
48 | ACCCTAAG | -0.0957 ± 0.054
49 | GTAGTCCA | -0.241 ± 0.03
50 | CTCCTCAC | 0.262 ± 0.028

Row | Sequence | PBM E-score of 8-mer
51 | GCGCGGCA | 0.156 ± 0.011
52 | TACCGTAA | -0.153 ± 0.057
53 | GCTATCGA | 0.123 ± 0.017
54 | AAAGGGTC | -0.256 ± 0.025
55 | AGGGCACG | -0.0654 ± 0.016
56 | AGTCCAAT | -0.0929 ± 0.015
57 | TCAACACA | 0.27 ± 0.006
58 | CTCAATAA | -0.137 ± 0.037
59 | CCTCGTGC | -0.0561 ± 0.024
60 | CCTCGGAA | -0.0996 ± 0.043
61 | CAAGCGAC | -0.00453 ± 0.034
62 | ACTCATAG | 0.0246 ± 0.073
63 | GCTTAGCA | 0.0326 ± 0.054
64 | AACGATAG | -0.202 ± 0.092
65 | ATACGTTA | 0.0202 ± 0.072
66 | CTAGCCCC | -0.172 ± 0.015
67 | ATCAGAGC | -0.23 ± 0.031
68 | GCACTAGA | -0.104 ± 0.021
69 | ACCCTCTA | -0.0709 ± 0.017
70 | ACATGGAT | -0.00132 ± 0.02
71 | AACTGCGT | -0.0404 ± 0.072
72 | CATCTTTA | -0.238 ± 0.014
73 | AAAATTAT | -0.0344 ± 0.022
74 | ATAGTCCC | -0.103 ± 0.015
75 | AACGACAC | 0.306 ± 0.01

Row | Sequence | PBM E-score of 8-mer
76 | ATCCGGAA | -0.266 ± 0.045
77 | GATGAACA | -0.0218 ± 0.061
78 | CTTGTTTC | 0.0184 ± 0.067
79 | ATCTTCAT | 0.104 ± 0.0029
80 | AACTTCGA | 0.0164 ± 0.033
81 | CTCAGATA | -0.216 ± 0.056
82 | AGAACGTG | 0.186 ± 0.0079
83 | AATAACAT | -0.056 ± 0.057
84 | CTTATTGC | 0.0127 ± 0.024
85 | AAGTATGT | -0.0386 ± 0.028
86 | CAGGCGCA | -0.102 ± 0.085
87 | AGCAGTGC | -0.00363 ± 0.029
88 | TTGCGCAA | 0.14 ± 0.029
89 | TAGGCGGA | -0.275 ± 0.055
90 | CGGTGGGC | -0.0799 ± 0.026
91 | CAACCTTG | 0.0419 ± 0.059
92 | AATTTACT | -0.165 ± 0.059
93 | TAGGGTCA | -0.125 ± 0.0069
94 | ACATCGAC | 0.232 ± 0.031
95 | CCCGGACG | -0.188 ± 0.026
96 | ATCACCAA | 0.175 ± 0.0053
97 | AGACCGCC | -0.156 ± 0.012
98 | CGCATTTA | 0.0985 ± 0.028
99 | CCCAGAGG | -0.127 ± 0.05
100 | ATCCCACC | 0.311 ± 0.006

Row | Sequence | PBM E-score of 8-mer
101 | AGGCGCAA | 0.326 ± 0.028
102 | TTCCGCAA | -0.0642 ± 0.02
103 | ATCCGAAG | -0.211 ± 0.011
104 | ATATCCCG | -0.129 ± 0.034
105 | CATAGTAC | -0.0998 ± 0.079
106 | GAACCCTC | -0.224 ± 0.012
107 | GGTTCCGA | -0.278 ± 0.025
108 | CTTGTAGA | -0.184 ± 0.067
109 | CGAACTAG | 0.0383 ± 0.022
110 | CAGTTTCA | 0.0753 ± 0.036
111 | CGTCTATC | -0.313 ± 0.018
112 | GTACCCAC | 0.0971 ± 0.053
113 | GTTTGCTA | 0.0463 ± 0.038
114 | CCACTATC | 0.129 ± 0.028
115 | GTAACATA | 0.0195 ± 0.023
116 | CTTCCGCC | -0.0616 ± 0.065
117 | ATCATTGA | -0.0521 ± 0.04
118 | GTATGACA | 0.171 ± 0.071
119 | ATGAGAGC | -0.212 ± 0.034
120 | GAACTTAA | -0.0875 ± 0.035
121 | TTAACGAA | 0.0574 ± 0.049
122 | AGGCACGC | 0.195 ± 0.1
123 | CCTGAGCG | -0.0465 ± 0.036
124 | TACGTCAA | -0.192 ± 0.022
125 | ATTCCTTA | -0.161 ± 0.012

Row | Sequence | PBM E-score of 8-mer
126 | ACCATTAA | -0.059 ± 0.16
127 | AACCCAGA | 0.0319 ± 0.023
128 | AACTAATG | -0.0496 ± 0.012
129 | AACGGTGT | 0.175 ± 0.097
130 | GCAGTGAA | 0.0838 ± 0.019
131 | CAGTACTC | 0.0271 ± 0.023
132 | CACACATA | 0.3998 ± 0.0028
133 | CTGTGCAA | -0.205 ± 0.034
134 | CCGTGACC | 0.0362 ± 0.0016
135 | AGGCTCTC | -0.175 ± 0.028
136 | CCCTAGTC | 0.0588 ± 0.035
137 | CCACCGTA | -0.0423 ± 0.022
138 | GAAGGCTC | -0.226 ± 0.039
139 | CTGACGCA | 0.1611 ± 0.00065
140 | CACATGAA | 0.181 ± 0.078
141 | ATAAGAAC | -0.134 ± 0.049
142 | TCTTCGAA | -0.0319 ± 0.031
143 | CTAAGAAC | -0.0621 ± 0.059
144 | AACTTATA | -0.235 ± 0.0056
145 | ATCAGCGG | -0.00193 ± 0.058
146 | CAGCACGG | -0.0611 ± 0.049
147 | ACGAGTAG | -0.213 ± 0.043
148 | AATTTGCC | -0.0934 ± 0.04
149 | CTTCGACC | -0.306 ± 0.014
150 | ATACCAAT | -0.091 ± 0.03

Row | Sequence | PBM E-score of 8-mer
151 | CAATGCCG | -0.235 ± 0.043
152 | GATTAGCC | -0.13 ± 0.06
153 | TATTCTCA | 0.264 ± 0.061
154 | AAATACGG | 0.00766 ± 0.039
155 | CAACGGGG | 0.000945 ± 0.0056
156 | CCGTCAAG | 0.131 ± 0.03
157 | AACAATAA | 0.0691 ± 0.025
158 | ATCACCAT | 0.115 ± 0.012
159 | CATTTAAC | 0.207 ± 0.059
160 | CCCAAGGA | -0.017 ± 0.051
161 | CTCGCCAC | 0.288 ± 0.074
162 | GTATCGAC | 0.051 ± 0.022
163 | ATTCACCG | 0.0187 ± 0.041
164 | GCAACACA | 0.267 ± 0.014
165 | AACCATGT | 0.22 ± 0.017
166 | ACCGAATG | -0.1773 ± 0.0017
167 | AAACGCCG | 0.0493 ± 0.018
168 | AGTCTAAC | -0.12 ± 0.0043
169 | ACCTCTGA | 0.0163 ± 0.011
170 | GAGAGGGC | 0.046 ± 0.11
171 | AACCTGGC | 0.0794 ± 0.017
172 | CGAGATGA | -0.113 ± 0.01
